According to PMC5934895:
No constants are given. Whether binding was seen depends on the method and setting. Binding seen in cells or lysates may run through a third protein. Some binding calls cover weakened binding; strength is not graded here. Tags and fused reporters may be left off the sequences shown.

Amino acid sequences for entries named in this document (tags omitted). Residues count along the entry.
UniProt P08670, residues 1-96: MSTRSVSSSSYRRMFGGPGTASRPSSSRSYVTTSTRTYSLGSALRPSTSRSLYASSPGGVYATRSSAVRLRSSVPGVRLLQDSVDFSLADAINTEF

Target: GFP-tagged N-terminal vimentin fragment (1-96-GFP) (UniProt P08670)
Test: co-IP; GFP-coprecipitation: cell lysates in NP-40 lysis buffer (10 mM Tris/HCl pH 7.5, 150 mM NaCl, 5 mM EDTA, 0.5% NP-40) on GFP-trap A beads, 4 °C, 15-120 min, three washes; immunoblot

binding: binds
B1: FLAG-tagged Nup88(1-541) (domain or fragment, UniProt Q99567 1-541)
chain: MAAAEGPVGDGELWQTWLPNHVVFLRLREGLKNQSPTEAEKPASSSLPSSPPPQLLTRNVVFGLGGELFLWDGEDSSFLVVRLRGPSGGGEEPALSQYQRLLCINPPLFEIYQVLLSPTQHHVALIGIKGLMVLELPKRWGKNSEFEGGKSTVNCSTTPVAERFFTSSTSLTLKHAAWYPSEILDPHVVLLTSDNVIRIYSLREPQTPTNVIILSEAEEESLVLNKGRAYTASLGETAVAFDFGPLAAVPKTLFGQNGKDEVVAYPLYILYENGETFLTYISLLHSPGNIGKLLGPLPMHPAAEDNYGYDACAVLCLPCVPNILVIATESGMLYHCVVLEGEEEDDHTSEKSWDSRIDLIPSLYVFECVELELALKLASGEDDPFDSDFSCPVKLHRDPKCPSRYHCTHEAGVHSVGLTWIHKLHKFLGSDEEDKDSLQELSTEQKCFVEHILCTKPLPCRQPAPIRGFWIVPDILGPTMICITSTYECLIWPLLSTVHPASPPLLCTREDVEVAESPLRVLAETPDSFEKHIRSILQRSV
